Laboratory results as given in PubChem BioAssay (Tox21).
Where “and” joins values, the source holds several entries; their conditions need not be identical. Identical values can stand only once. Inconclusive means that the source gave no clear call. Such entries were picked first, then a sample of the others. Where the call is inconclusive, the potency comes from a doubtful curve fit. Calls of active or inactive are those of the source. Calls follow the shape of the dose curve; as a rule, active = well fitted activation curve with a large enough effect in the repeat runs; inconclusive = weak or mixed curves; inactive = no such curve, though single readings can be large or run the other way.

target: Nuclear receptor subfamily 1 group I member 3 (Homo sapiens) (UniProt Q14994); experiment: qHTS assay to identify small molecule agonists of the constitutive androstane receptor (CAR) signaling pathway (AID 1224839); settings: HepG2 hCAR CYP2B6-luciferase, agonist mode, 24 h; series mostly up to 92.4 µM; also: nearly all actives have a fitted effect of over 15% in size;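 as to activation: HepG2 cells stably carrying human CAR and a CYP2B6 luciferase reporter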
UniProt Q14994, sequence (Q14994 whole entry, looked up): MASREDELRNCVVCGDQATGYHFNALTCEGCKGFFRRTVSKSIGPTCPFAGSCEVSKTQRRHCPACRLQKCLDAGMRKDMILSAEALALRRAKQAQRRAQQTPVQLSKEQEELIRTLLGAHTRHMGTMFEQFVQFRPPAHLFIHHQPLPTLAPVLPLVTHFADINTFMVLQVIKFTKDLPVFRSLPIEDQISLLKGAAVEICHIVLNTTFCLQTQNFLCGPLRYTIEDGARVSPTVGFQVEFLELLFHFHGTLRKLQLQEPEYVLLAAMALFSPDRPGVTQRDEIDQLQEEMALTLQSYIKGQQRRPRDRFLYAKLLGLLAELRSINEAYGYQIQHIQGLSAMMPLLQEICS
Method in brief: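 HepG2-CYP2B6-hCAR cells, 2500/well, 4 h pre-incubation; compounds 15 conc.; PK11195 0.75 uM final; 24 h, 37 C/5% CO2; ONE-Glo luciferase read.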
Potency is read from the fitted curve at half-maximal effect; tags tell the direction and shape of the fitted curve.

Structure (SMILES) | Potency
O=C(Nc1ccccc1-c1ccc(Cl)cc1)c1cccnc1Cl | inconclusive: 32.5 µM [activator, partial curve]
CCCCCCCc1ccc(O)cc1 | inconclusive: 54.5 µM [activator]
Cc1cc(C(C)(C)c2cc(C)c(O)c(C)c2)cc(C)c1O | active: 4.69 µM
C=C(Cl)CSC(=S)N(CC)CC | inconclusive: 37.5 µM [activator, partial curve]
CC1(C)[C@H](/C=C2\CCSC2=O)[C@@H]1C(=O)OCc1coc(Cc2ccccc2)c1 | inconclusive: 54.5 µM [activator, partial curve]
O=S1OC[C@@H]2[C@H](CO1)[C@]1(Cl)C(Cl)=C(Cl)[C@@]2(Cl)C1(Cl)Cl (stereo not given in full) | active: 27.3 µM
ClC1=C(Cl)[C@]2(Cl)[C@H]3[C@H]([C@@H]4C=C[C@H]3C4)[C@@]1(Cl)C2(Cl)Cl | inconclusive: 15.3 µM [activator, full curve, poor fit] and active: 13.7 µM
Clc1ccc(C(Cl)(Cl)Cl)cc1Cl | inconclusive: 53.3 µM [activator, partial curve]
CCCCNC(=O)n1c(NC(=O)OC)nc2ccccc21 | inconclusive: 48.6 µM [activator, partial curve, poor fit]
CN(C)c1ccc(N=O)cc1 | inconclusive: 7.7 µM [activator, partial curve]
CCCCOC(=O)c1ccccc1C(=O)OCc1ccccc1 | inconclusive: 54.4 µM [activator, partial curve]
CC(C)Oc1cc(-n2nc(C(C)(C)C)oc2=O)c(Cl)cc1Cl | active: 60.3 µM and active: 61.1 µM
CN(C)c1ccc(C(=O)c2ccc(N(C)C)cc2)cc1 | inconclusive: 8.55 µM [activator, partial curve]
CC(C)OC(=O)C(O)(c1ccc(Cl)cc1)c1ccc(Cl)cc1 | inconclusive: 54.5 µM [activator, partial curve]
COC1=CC(=O)O[C@@H](CCc2ccccc2)C1 | active: 56.7 µM
CC(C)(C)c1cc(O)ccc1O | active: 54.5 µM and active: 61.1 µM
CCCCC(CC)COC(=O)c1ccccc1C(=O)OCC(CC)CCCC (stereo not given) | active: 17.2 µM
OC(c1ccc(Cl)cc1)(c1ccc(Cl)cc1)C(Cl)(Cl)Cl | inconclusive: 54.5 µM [activator, partial curve]
c1ccc(P(c2ccccc2)c2ccccc2)cc1 | inconclusive: 55.5 µM [activator, partial curve] and inconclusive: 48.6 µM [activator, partial curve]
Oc1ccc(-c2ccccc2)cc1 | active: 53.8 µM and active: 54.5 µM

Structure (SMILES) | Potency
CC(C)NC(=O)N1CC(=O)N(c2cc(Cl)cc(Cl)c2)C1=O | inactive
CCCCCCCCc1ccc(O)cc1 | active: 48.9 µM
CC(=O)[O][Pb]([c]1ccccc1)([c]1ccccc1)[c]1ccccc1 | inactive
C[C@]12CC[C@@H]3c4ccc(OC(=O)N(CCCl)CCCl)cc4CC[C@H]3[C@@H]1CC[C@@H]2O | inactive
COc1ccc(C(c2ccc(OC)cc2)C(Cl)(Cl)Cl)cc1 | active: 2.42 µM
CC(C)N1C(=O)N(c2ccccc2)CSC1=NC(C)(C)C | active: 24.3 µM
CCOP(=S)(OCC)SC(CCl)N1C(=O)c2ccccc2C1=O (stereo not given) | inconclusive: 30.6 µM [activator, partial curve]
CC1(C)C(C=C(Cl)Cl)C1C(=O)OC(C#N)c1cccc(Oc2ccccc2)c1 (stereo not given) | inconclusive: 27.3 µM [activator, partial curve] and inconclusive: 29.8 µM [activator, partial curve]
OC(c1ccc(Cl)cc1)(c1ccc(Cl)cc1)c1cccnc1 | inconclusive: 68.6 µM [activator, partial curve, poor fit]
Clc1ccc(-c2ccc(Cl)c(Cl)c2Cl)c(Cl)c1Cl | inconclusive: 26 µM [activator, partial curve]
O=C/C=C/c1ccccc1 | inconclusive: 48.6 µM [activator, partial curve, poor fit]
CC1CCC(C(C)C)C(OC(=O)c2ccccc2N)C1 (stereo not given) | inconclusive: 33.9 µM [activator, partial curve]
ClC(Cl)=C(c1ccc(Cl)cc1)c1ccc(Cl)cc1 | inconclusive: 70.3 µM [activator, single point] and inconclusive: 30.6 µM [activator, partial curve]
Clc1ccc(C(c2ccccc2Cl)C(Cl)(Cl)Cl)cc1 (stereo not given) | active: 6.9 µM and active: 1.6 µM
CCCCCCCCCc1ccc(O)cc1 | inconclusive: 69.3 µM [activator, single point] and inconclusive: 34.4 µM [activator, partial curve]
CCCCOCN(C(=O)CCl)c1c(CC)cccc1CC | active: 27.3 µM
CO/N=C(/C1=NOCCO1)c1ccccc1Oc1ncnc(Oc2ccccc2Cl)c1F | inconclusive: 21.7 µM [activator, partial curve]
C=CCC1=C(C)C(OC(=O)C2C(C=C(C)C)C2(C)C)CC1=O (stereo not given) | active: 16.3 µM
Cc1ccc(N=C=O)cc1N=C=O | inconclusive: 62.7 µM [activator, partial curve]
O=C(NC(=O)c1c(F)cccc1F)Nc1ccc(Oc2ccc(C(F)(F)F)cc2Cl)cc1F | inconclusive: 68.6 µM [activator, partial curve, poor fit]
